The target in assay [1] is T1, platelet glycoprotein Ibα on immobilized fixed platelets (UniProt P07359 17-652, limits assumed).
T1 construct: whole, on cells; On platelets as part of the GPIb/IX complex; blood came from human donors; also called GPIbα; platelet GPIbα
In words: increasing A1 on immobilized fixed platelets, anti-His detection; half-maximal binding.

Assay [2] addresses T2, recombinant VWF-A2 domain polypeptide (amino acids G1481-R1668) (human, UniProt P04275 1481-1668).
T2 construct: Expressed in E. coli as a fusion protein with a His tag at the N terminus; monomeric on SDS-PAGE; also called A2 protein; VWF-A2 protein; not shown: N-terminal His tag from the vector
Description: ELISA, increasing A1 on immobilized A2 polypeptide, CR-1 detection; half-maximal binding. For orientation: In an ELISA, binding on a coated surface is turned into a signal by an enzyme label.

B1: recombinant VWF-A1 domain polypeptide ([…]) (other)
chain: not shown
notes: range […]; Expressed in E. coli with an N-terminal His tag; also called A1 polypeptide; A1 protein; not shown: N-terminal His tag from the vector
In the case of B1, the EC50 was around 40 nM in assay [1] and around 50 nM in assay [2].

In general, EC50 refers to the midpoint of the concentration-response curve.

(Values after patent US20090118161A1 (BAYLOR COLLEGE OF MEDICINE, published 2009).)
